Measured values reported in PubChem BioAssay AID1645886 (National Center for Advancing Translational Sciences (NCATS), 2021).
Where “and” joins values, the source holds several entries; their conditions need not be identical. Equal entries are not always repeated. Among all 16,000 compounds or so, about 260 (1.6%) were called active. Inconclusive results, whose numbers are uncertain, are shown with a selection of clear calls. The call rests on the fitted dose curve; in most records, active means well fitted inhibition curve with a large enough effect; inconclusive means small, poorly fitted or top-dose-only effect; inactive means no such curve, though single readings can be large or run the other way. Where the call is inconclusive, the potency comes from a doubtful curve fit.

molecular target: Rap guanine nucleotide exchange factor 4 (Homo sapiens) (UniProt Q8WZA2); test: Validation qHTS for antagonist of cAMP-regulated guanine nucleotide exchange factor 4 (EPAC2); conditions: EPAC2 Rap1B BODIPY-GDP exchange, fluorescence; series mostly up to 112 µM; further: nearly all actives have a fitted effect of over 40% in size
Sequence of UniProt Q8WZA2 (Q8WZA2 whole entry, looked up): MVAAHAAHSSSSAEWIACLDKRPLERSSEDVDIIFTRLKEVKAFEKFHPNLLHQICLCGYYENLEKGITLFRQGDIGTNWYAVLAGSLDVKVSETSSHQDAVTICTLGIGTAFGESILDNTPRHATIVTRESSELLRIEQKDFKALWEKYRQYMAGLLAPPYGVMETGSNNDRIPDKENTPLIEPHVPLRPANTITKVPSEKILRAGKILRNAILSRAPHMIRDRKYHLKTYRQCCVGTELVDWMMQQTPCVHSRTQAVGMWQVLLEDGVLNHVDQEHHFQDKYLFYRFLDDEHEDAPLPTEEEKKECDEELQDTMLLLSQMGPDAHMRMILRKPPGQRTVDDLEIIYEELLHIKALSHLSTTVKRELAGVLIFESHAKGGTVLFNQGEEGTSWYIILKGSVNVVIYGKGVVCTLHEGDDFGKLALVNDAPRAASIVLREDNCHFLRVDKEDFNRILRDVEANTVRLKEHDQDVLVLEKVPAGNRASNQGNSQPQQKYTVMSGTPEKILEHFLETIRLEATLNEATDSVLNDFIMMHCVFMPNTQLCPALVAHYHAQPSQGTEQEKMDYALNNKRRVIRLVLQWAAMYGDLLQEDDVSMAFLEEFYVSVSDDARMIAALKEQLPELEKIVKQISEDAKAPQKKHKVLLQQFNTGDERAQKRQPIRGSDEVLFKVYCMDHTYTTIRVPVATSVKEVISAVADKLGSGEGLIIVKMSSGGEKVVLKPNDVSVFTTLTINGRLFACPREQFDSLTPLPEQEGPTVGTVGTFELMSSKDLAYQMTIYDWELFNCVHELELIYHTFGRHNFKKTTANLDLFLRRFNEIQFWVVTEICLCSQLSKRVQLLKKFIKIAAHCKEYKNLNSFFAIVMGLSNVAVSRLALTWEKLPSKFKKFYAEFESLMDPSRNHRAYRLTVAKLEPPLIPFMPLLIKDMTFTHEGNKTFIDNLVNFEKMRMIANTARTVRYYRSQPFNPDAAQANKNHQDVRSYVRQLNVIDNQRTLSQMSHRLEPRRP
How it was run: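 Normalized against a 6.5 mM cAMP agonist control, compounds were tested on 100 nM EPAC2 exchanging Rap1B-bound BODIPY-GDP (250 nM) for 50 uM GDP. Fluorescence drop (ex 480, em 540 nm) was tracked at room temperature over 30 min at 5-min intervals.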
Potency means the concentration at half of the fitted maximal effect; tags describe the fitted curve by direction and shape.

Row | SMILES | Potency
1 | CCOc1ccc(CN2CCOc3ccc(C(O)c4cccnc4)cc3C2)cc1 (centres undefined) | inactive
2 | CN(C)C(=O)[C@@H]1C[C@@H](Sc2nc3ccccc3[nH]2)CN1Cc1ccnc2ccccc12 | inconclusive: 7.08 µM [inhibitor, full curve, poor fit]
3 | COC(=O)c1cc(CNC(=O)c2ccccc2OC)cc(NC(=O)c2ccccc2F)c1 | inactive
4 | COc1cc(OC)c2nc(-c3cc4c(c(OC)c3)OCCN(Cc3cn(C)nc3C)C4)cc(C)c2c1 | inactive
5 | CC(=O)c1ccc2oc3ccccc3c(=O)c2c1 | inactive
6 | O=C(Oc1ccccc1)N1CCC2(CC1)CN(c1ccccn1)C2 | inconclusive: 31.6 µM [inhibitor, full curve]
7 | Cc1c(C(=O)NCCCc2ccncc2)cnn1-c1nccc(-c2ccccc2F)n1 | inactive
8 | CS(=O)(=O)N1CCC[C@@]2(CCN(C(c3ccccc3)c3ccccc3)C2)C1 | inconclusive: 1.26 µM [inhibitor, full curve, poor fit]
9 | CCN1C(=O)CC(CC(=O)N2CCC(c3nc4ccc(F)cc4[nH]3)CC2)(c2ccccc2C)C1=O (centres undefined) | inconclusive: 1.78 µM [inhibitor, full curve, poor fit]
10 | CNc1cc(NS(=O)(=O)c2ccc(N)cc2)nc(NC)n1 | inconclusive: 89.1 µM [inhibitor, partial curve, poor fit]
11 | Fc1ccc(Nc2ccnc(-c3ccccc3C(F)(F)F)n2)cc1 | inconclusive: 39.8 µM [inhibitor, partial curve]
12 | COc1ccccc1CNc1nc(-c2c(C)noc2C)nc2ccccc12 | inconclusive: 63.1 µM [inhibitor, partial curve, poor fit]
13 | CCN(CC)CCCC(C)Nc1c2ccc(Cl)cc2nc2ccc(OC)cc12 (centres undefined) | inactive
14 | COc1ccc(-n2c(=O)cnc3cnc(Oc4cccc(Cl)c4)nc32)cc1 | inconclusive: 50.1 µM [inhibitor, partial curve, poor fit]
15 | O=S1(=O)CCOC[C@H](CC2CCCCC2)N1Cc1cccc(F)c1 | inconclusive: 89.1 µM [inhibitor, single point]
16 | CC(C)c1c(C(=O)NCC(C)(C)N2CCOCC2)cnn1-c1nccc(-c2cccs2)n1 | inactive
17 | CCCN(C/C=C\I)[C@@H]1CCc2cccc(O)c2C1 | inconclusive: 39.8 µM [inhibitor, partial curve]
18 | COC(=O)c1ccc(-c2cccc3c2OC(CNC(=O)/C=C/c2ccc(OC)c(OC)c2)C3)nc1 (centres undefined) | inactive
19 | CC(C)NCC(O)c1ccc(NS(C)(=O)=O)cc1 (centres undefined) | inconclusive: 0.0501 µM [inhibitor, full curve, poor fit]
20 | CC(C)C[C@@H](CO)N(Cc1ccccc1)S(=O)(=O)N(Cc1ccccc1)[C@@H](CO)CC(C)C | inconclusive: 31.6 µM [inhibitor, partial curve, poor fit]

Row | SMILES | Potency
21 | CC(NC(=O)C1CCOCC1)c1nnc2n1CCN(Cc1cc3c(cc1Cl)OCO3)CC2 (centres undefined) | inconclusive: 56.2 µM [inhibitor, partial curve, poor fit]
22 | CCOC(=O)Nc1ccc2c(c1)N(C(=O)CCN1CCOCC1)c1ccccc1S2 | inconclusive: 39.8 µM [inhibitor, single point]
23 | O=C1[C@H](Cc2ccccc2)NCCCC[C@@H](c2ccc(Cl)cc2)N1Cc1ccccc1 | inconclusive: 89.1 µM [inhibitor, partial curve, poor fit]
24 | COc1cccc(C2(CC(=O)N3CCCOc4c(cccc4OC)C3)CC(=O)N(C)C2=O)c1 (centres undefined) | inconclusive: 35.5 µM [inhibitor, partial curve]
25 | Cc1ccc2c(CC(=O)N3CCOc4ccc(CN5C[C@@H](C)O[C@@H](C)C5)cc4C3)cc(=O)oc2c1 | inconclusive: 100 µM [inhibitor, single point]
26 | O=C1C=CC(=C(c2ccc(O)cc2)c2ccc(O)cc2)C=C1 | inconclusive: 35.5 µM [inhibitor, partial curve]
27 | O=S1(=O)CCOCCCN1Cc1cccc(Cl)c1 | inconclusive: 89.1 µM [inhibitor, single point]
28 | O=P(O)(O)C(O)(Cc1cnc2ccccn12)P(=O)(O)O | inactive
29 | Cc1cc(C(=O)N2CCOc3ccc(CN4CCC(Oc5cccnc5)CC4)cc3C2)c(C)o1 | inactive
30 | COC(=O)[C@H]1[C@H]2C[C@@H]3c4[nH]c5cc(OC)ccc5c4CCN3C[C@H]2C[C@@H](OC(=O)c2cc(OC)c(OC)c(OC)c2)[C@@H]1OC | inconclusive: 50.1 µM [inhibitor, partial curve, poor fit] and inconclusive: 3.98 µM [inhibitor, full curve]
31 | O=C1CCCCN1CCC(=O)N1CCOc2ccc(C(O)C3CCCCC3)cc2C1 (centres undefined) | inconclusive: 100 µM [inhibitor, partial curve, poor fit]
32 | CC(C)(CO)[C@@H](O)C(=O)NCCCO | inactive
33 | O=C(c1cc(C(F)(F)F)cc(C(F)(F)F)c1)N1CCC[C@@]2(CCN(c3ccccc3)C2)C1 | inconclusive: 17.8 µM [inhibitor, partial curve, poor fit]
34 | COc1cccc(-c2nc3cc(SC)ccc3cc2CN(C(=O)c2sccc2C)C2CC2)c1 | active: 39.8 µM
35 | CCCCCCN(CCCCCC)C(=O)Cc1c(-c2ccc(F)cc2)[nH]c2ccccc12 | inconclusive: 89.1 µM [inhibitor, partial curve, poor fit] and inconclusive: 79.4 µM [inhibitor, partial curve, poor fit]
36 | Cc1noc(C)c1C(=O)N1CCC2(CCCN(Cc3nccs3)C2)CC1 | inconclusive: 79.4 µM [inhibitor, partial curve, poor fit]
37 | CO[C@H]1[C@H](NC(=O)c2ccncc2)c2ccccc2C12CCN(C(=O)c1ccoc1)CC2 | inconclusive: 39.8 µM [inhibitor, single point]
38 | CSc1nc(N)c2ncn([C@H]3O[C@H](COP(=O)(O)OP(=O)(O)O)[C@@H](O)[C@@H]3O)c2n1 | inactive
39 | COc1ccccc1C1CN(Cc2cccc(C)n2)Cc2ccccc2O1 (centres undefined) | inconclusive: 39.8 µM [inhibitor, single point]
